Data published in PubChem BioAssay (NCI).
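All cell lines were grown in 96-well plates and treated with compound for 48 hours. TGI: concentration producing complete growth inhibition.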 A number of entries come with more than one value. Only these are listed. The source may hold further records. For some assays here: Records of one sample usually come from different ranges of test concentrations, which the source does not state; a value can be the end of its range. For some assays here: The records of an entry are repeated measurements across runs, samples, wells, individuals or studies. Marks in square brackets tell the records apart. Letters count within one entry.

What was measured:
Test in all cases: NCI tumour cell line growth inhibition, 48 h
[1] = system: IGROV1 ovarian
[2] = system: HT29 colon
[3] = system: TK-10 renal
[4] = system: K-562 leukemia
[5] = system: U251 CNS
[6] = system: UACC-62 melanoma
[7] = system: M14 melanoma
[8] = system: SF-268 CNS
[9] = system: DU-145 prostate
[10] = system: OVCAR-4 ovarian

**Q.** Which TGI [1] does the source give for CN1C(=O)C(N=Nc2ccc([N+](=O)[O-])cc2)SC1=S (stereo unspecified) here?
**A.** Its TGI is > 100 µM [sample A, 1 test] and 7.59 µM [sample B, 1 test].

**Q.** CC[C@]12C=CCN3CC[C@]4(C(=C(C(=O)OC)C1)Nc1cc5c(cc14)[C@@H]1[C@H](O5)[C@@H](O)[C@@]4(CC)CC(C(=O)OC)=C5Nc6ccccc6[C@@]56CCN1[C@@H]46)[C@@H]32 was tested. Which TGI [2] did it give?
**A.** Its TGI is 5.53 µM and > 100 µM.

**Q.** What about the TGI [3] of the same compound?
**A.** The TGI was 4.15 µM and 42.9 µM.

**Q.** What about the TGI [4] of the same compound?
**A.** The TGI was 6.3 µM and > 100 µM.

**Q.** What about the TGI [5] of the same compound?
**A.** Its TGI is 5.71 µM and > 100 µM.

**Q.** What about the TGI [6] of the same compound?
**A.** The TGI was 25 µM and 2.35 µM.

**Q.** For Cc1ccc(C(=O)NC2C(=O)NC(C(C)C)C(=O)N3CCCC3C(=O)N(C)CC(=O)N(C)C(C(C)C)C(=O)OC2C)c2c1Oc1c(c(C(=O)NC3C(=O)NC(C(C)C)C(=O)N4CCCC4C(=O)N(C)CC(=O)N(C)C(C(C)C)C(=O)OC3C)c3nc(-c4ccccc4)c(=O)oc3c1C)N2 (stereo unspecified), which TGI [7] is on record?
**A.** The TGI was 220 nM and 16.7 nM.

**Q.** And the TGI [8]?
**A.** The TGI was 8.93 nM and 187 nM.

**Q.** What about the TGI [9] of the same compound?
**A.** The TGI was 37 nM and 372 nM.

**Q.** What about the TGI [10] of the same compound?
**A.** The TGI was 1.16 µM and 40.6 nM.

**Q.** What about the TGI [5] of the same compound?
**A.** Its TGI is 3.01 nM and 2.24 µM.
